Experimental data from patent publication US20230109833A1, “METABOLICALLY STABLE N-ACYLAMINOOXADIAZOLES USEFUL AS ANTIBACTERIAL AGENTS” (MICROBIOTIX, INC., priority 2017, published 2023).

Columns and labels:
[1] = Human liver microsome stability; type: in vitro ADME; conditions: after 5 min in the presence of microsomes; data not shown
[2] = Mouse liver microsome stability; conditions: after 5 min in the presence of microsomes; data not shown
[3] = system: Neisseria gonorrhoeae strain H041 (STMR); conditions: 3.3 mg/kg PO once
Protocol: Two separate efficacy studies examined oral efficacy against a murine model of vaginal gonococcal infection. These studies utilized the strain H041, a highly drug-resistant Ng clinical isolate described by Ohnishi et. al. Antimicrob. Agents Chemother., 55(7): 3538 (2011). Each study was performed using both untreated and gentamycin (48 mg/kg IP, QD 5 days) controls (representing 2 experimental groups). In each of two experiments, the test agent was MBX-4132 given as an oral dosage at either 3.3 mg/kg or 10 mg/kg via a single oral dosage. Two days prior to experiments, female BALB/c mice were treated with 17 β-estradiol and antibiotics to increase their susceptibility to Ng as described previously (Jerse et. al., Frontiers Microbial., 2: 107 (2011)).
On day 0, mice were inoculated vaginally with 20 μl of strain H041 (STM^R) suspended in PBS; suspensions adjusted to 5×10^5 CFU/ml (infectious dose 80; ID80). For H041 (STM^R), the ID80 is 10^4 CFU/mouse. Vaginal swabs were quantitatively cultured for Ng on days 1 and 2 following vaginal inoculation to confirm infection prior to treatment. A portion of the swab sample was also inoculated onto HIA agar to monitor commensal flora. […] Vaginal swabs were quantitatively cultured for N. gonorrhoeae for 8 consecutive days following treatment. […] The number of viable bacteria recovered was determined using the Spiral Biotech Q-Counter Software. […]

Structure (SMILES) | stability in the presence of human liver microsomes [1] | stability in the presence of mouse liver microsomes [2] | clearance rate of infection [3]
O=C(Nc1nnc(-c2ccc(F)cc2)o1)c1ccc(Cl)cc1 [KKL-35] | no detectable material | no detectable material | –
O=C(Nc1nnc(-c2ccc(F)cc2)o1)N1CCc2ccccc2C1 [MBX-4132] | – | – | 60%
